Assay results reported in PubChem BioAssay AID686978 (National Center for Advancing Translational Sciences (NCATS), 2013).
Among all 420,000 compounds or so, about 64,000 (15%) were called active. The shares of active, inactive and inconclusive entries below differ from those in the screen. The call rests on the fitted dose curve; in most records, active means well fitted inhibition curve with a large enough effect; inconclusive means small, poorly fitted or top-dose-only effect; inactive means flat fitted curve, though single readings scatter. No potency is given beside an inconclusive call; the fits are too rough.

Assay: qHTS for Inhibitors of human tyrosyl-DNA phosphodiesterase 1 (TDP1): qHTS in cells in absence of CPT; further: nearly all actives have a fitted effect of over 55% in size
Details: DT40 Tdp1-/- hTDP1 cells, no CPT, ATP luminescence, 48 h; activity change, negative = growth inhibition: at 46.2 µM (top of the series) unless noted
Summary of the method: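 Chicken DT40 Tdp1-/- cells stably complemented with human TDP1 were seeded at 400 cells/well with DMSO in place of 20 nM camptothecin. After compound pinning, cells grew at least 48 hr at 37 °C; viability read by CellTiter-Glo luminescence.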
On the % scale 0 is the no-effect control and ±100 the full control effect; potency means the concentration at half of the fitted maximal effect; tags describe the fitted curve by direction and shape.

Compound	Potency	activity change, negative = growth inhibition
Cc1onc(-c2ccccc2Cl)c1C(=O)Nc1ccc(S(=O)(=O)N2CCCC2)cc1	inconclusive [inhibitor, partial curve]	
COc1ccc(/C(N)=N/OC(=O)c2cccs2)cc1	inconclusive [inhibitor, partial curve]	
COc1cc(C2Nc3ccccc3C(=O)N2c2ccc3c(c2)OCCO3)ccc1OCC(C)C (stereo unspecified)	inconclusive [inhibitor, single point]	
Cc1ccc(S(=O)(=O)/N=C(\N)c2ccc(Cl)cc2)cc1	inconclusive [inhibitor, single point]	
C=C(C)[C@@H]1CCC2(C(=O)O)CC[C@]3(C)[C@H](CC[C@@H]4[C@@]5(C)CCC(=O)C(C)(C)[C@@H]5CC[C@]43C)[C@@H]12 (stereo partly specified)	active: 3.66 µM	
O=C(c1ccccn1)C1CCCN(Cc2nc(Cc3cccc(F)c3)no2)C1 (stereo unspecified)	inconclusive [inhibitor, single point]	
Cc1occc1C(=O)N/N=C/c1ccc(OCc2ccccc2)cc1	inconclusive [inhibitor, single point]	
O=C(C1CCN(S(=O)(=O)c2cccs2)CC1)N1CCCCC1	inactive	
CCCn1cc(CN2CCC(Cc3ccccc3)(C(=O)OCC)CC2)c(C)n1	inconclusive [inhibitor, single point]	
Cc1ccc2nc(Cl)c(CN(C(=O)c3cnccn3)C3CCCCC3)cc2c1	inconclusive [inhibitor, single point]	
CCCCn1nnc(NC(=O)c2ccc(-c3cccc(Cl)c3)o2)n1	inactive	
COc1ccccc1OCc1ccc(C(=O)c2ccccc2)cc1	inconclusive [inhibitor, single point]	
COc1cc(CCC(=O)OCC(=O)Nc2ccccc2F)cc(OC)c1OC	inactive	
CC1(C)CC(=O)C2=C(C1)N=C1SCCC(=O)N1C2c1ccc(C(F)(F)F)cc1 (stereo unspecified)	inactive	
CC(=N\NC(=O)c1ccc([N+](=O)[O-])cc1)/C(=N/O)C(=O)Nc1ccccc1	inconclusive [inhibitor, single point]	
COc1ccc(-c2cn3c(C)c(C(=O)NCCN4CCOCC4)sc3n2)cc1	inconclusive [inhibitor, single point]	
C=CCCC(=O)N1CCC(Oc2cccc(C(=O)NCc3ccccn3)c2)CC1	inactive	
Cc1nc(N2CCOCC2)nc(Oc2ccccc2)c1[N+](=O)[O-]	inactive	
COc1ccc(-c2cc(C(F)(F)F)n3nc(C(=O)Nc4cccc(C(F)(F)F)c4)c(Br)c3n2)cc1	inconclusive [inhibitor, partial curve]	
COc1ccc(OCCC(=O)OCC(=O)NCc2ccco2)cc1	inconclusive [inhibitor, single point]	
O=C(Nc1ccon1)c1nc[nH]c1C(=O)N1CCN(c2ccccc2)CC1	inactive	
Cc1onc(-c2ccccc2)c1C(=O)N(Cc1ccccc1)C(C)C	active: 25.9 µM	
c1ccc2c(c1)CNC1(CCCCC1)C2	inconclusive [inhibitor, single point]	
COc1ccc(NC(=S)N(CCO)Cc2cc3c(C)cc(C)cc3[nH]c2=O)cc1	inconclusive [inhibitor, single point]	

Compound	Potency	activity change, negative = growth inhibition
CN(C)c1ccc(/C=N/Nc2ccc(-n3ccnc3)nn2)cc1	inconclusive [inhibitor, single point]	
CCCC(C(=O)NCCC(C)C)N(Cc1ccccc1Cl)C(=O)c1snc(C(N)=O)c1N (stereo unspecified)	inconclusive [inhibitor, partial curve]	
CC1=C(c2ccc(Cl)cc2)S(=O)(=O)N=C1N1CCN(c2cccc(C(F)(F)F)c2)CC1	active: 20.6 µM	
Cc1ccc(C)c(NC(=S)N/N=C/C(C)c2ccccc2)c1 (stereo unspecified)	inconclusive [inhibitor, single point]	
CCOC(=O)c1c(C)c(C(=O)Nc2ccc(N(C)C)cc2)c(C)n1CC	active: 4.61 µM	
CN(C)c1ccc(CNC(=O)C2(C)Cc3c(-c4cccc(C(N)=O)c4)ccnc3O2)cc1 (stereo unspecified)	inconclusive [inhibitor, single point]	
CCCCN(C(=O)c1cccs1)C1CCS(=O)(=O)C1 (stereo unspecified)	inactive	
CN(Cc1ccccc1)c1nc2nonc2nc1N1CCCC(CN2CCCC2=O)C1 (stereo unspecified)	inconclusive [inhibitor, single point]	
COC(=O)c1cc2c(ccn2-c2ccc(F)cc2)n1Cc1ccc(C#N)cc1	inconclusive [inhibitor, single point]	
N#C/C(=C\c1c(N2CCCCC2)nc2ccccn2c1=O)S(=O)(=O)c1ccccc1	inconclusive [inhibitor, single point]	
O=C(NC(=S)NCC1CCCO1)c1ccccc1 (stereo unspecified)	inactive	
COc1ccc(/C(O)=C/c2nc3ccccc3n(-c3ccccc3)c2=O)cc1	inconclusive [inhibitor, partial curve]	
Cc1ccc(S(=O)(=O)C2C(=O)NC3(C)CC2c2ccccc2O3)cc1 (stereo unspecified)	inactive	
COc1ccc(C(=O)N2CCCC(c3cc(C(=O)NCc4ccc(F)cc4)no3)C2)cc1 (stereo unspecified)	inconclusive [inhibitor, single point]	
CCOc1ccc(Br)cc1C(=O)N/N=C/c1cccnc1	inconclusive [inhibitor, single point]	
COc1cc(OC)c(C2=NOC(C(=O)NCc3ccc4c(c3)OCO4)C2)cc1Cl (stereo unspecified)	inconclusive [inhibitor, single point]	
O=C(NCc1ccccc1Cl)c1ccc(CSCc2cccc(F)c2)o1	inconclusive [inhibitor, single point]	
COc1ccc(NC(=O)CC2SC(=NCc3ccccc3OC)NC2=O)cc1 (stereo unspecified)	inconclusive [inhibitor, single point]	
CC1CCCCN1S(=O)(=O)c1ccc(C(=O)Nc2nnc(-c3ccccn3)o2)cc1 (stereo unspecified)	inconclusive [inhibitor, single point]	
O=C(NNc1nc(-c2ccccc2)c2cc(Br)ccc2n1)c1ccc(S(=O)(=O)N2CCOCC2)cc1	inconclusive [inhibitor, partial curve, poor fit]	
CCn1c(SCc2ccccc2)nnc1C1CCN(S(=O)(=O)c2ccc(OC)cc2)CC1	inconclusive [inhibitor, single point]	
C/C(CC(=O)Nc1ccc(Cl)cn1)=N\NC(=O)Cc1cccs1	inactive	
FC(F)(F)c1cc(-c2cccs2)n[nH]1	inactive	
C=CCN1C(=O)C(C)(C)N(C(C)=O)c2ccccc21	inactive	

Compound	Potency	activity change, negative = growth inhibition
CCNC(=O)/C(C#N)=C/c1c(N2CCN(c3cccc(Cl)c3)CC2)nc2c(C)cccn2c1=O	inconclusive [inhibitor, single point]	
Oc1ccc2ccccc2c1C=NNc1ccccn1	active: 4.61 µM	
CCN(CC)c1nc(=S)nc(NC(C)(C)C)[nH]1	inconclusive [inhibitor, partial curve]	
COc1cccc(-c2nnc(-c3ccco3)o2)c1	active: 29.1 µM	
O=C(O)CCNC(=O)OCC1c2ccccc2-c2ccccc21	inconclusive [inhibitor, partial curve]	
CCN(c1ccccc1)S(=O)(=O)c1ccc(C(=O)NC2CCN(Cc3ccccc3)CC2)cc1	active: 7.31 µM	
Cc1ccc2nc(N3CCN(C(=O)c4ccccc4F)CC3)c(C#N)cc2c1	inconclusive [inhibitor, single point]	
CCOC(=O)CN1N=C(c2ccc(Cl)s2)CSC1=O	inactive	
Nc1nc(NCc2ccc(Cl)cc2)nc(NCCO)c1[N+](=O)[O-]	inconclusive [inhibitor, single point]	
Cc1occc1C(=O)NNC(=O)C1CCCCC1		inconclusive: -29.4% [inhibitor]
Cc1ccc(-n2nnnc2CNC(=O)c2ccccc2F)cc1C	inactive	
CCn1c(-c2ccc(C(C)(C)C)cc2)n[nH]c1=S	active: 8.2 µM	
O=[N+]([O-])c1ccc(N2CCN(c3ccc(O)cc3)CC2)c(Cl)c1	active: 13 µM	
O=C(NCc1ccccn1)c1ccccc1OCc1ccc(F)cc1	inconclusive [inhibitor, single point]	
COCc1cc(=O)[nH]c(/N=C(\N)Nc2ccc(Oc3ccccc3)cc2)n1	inconclusive [inhibitor, single point]	
O=C(c1ccc(Cl)s1)N1CCN(c2nc3ccccc3s2)CC1	active: 16.4 µM	
COC(=O)C1C(=O)c2c([nH]c(C(=O)OCCOC(C)C)c2C)CC1C (stereo unspecified)	inconclusive [inhibitor, single point]	
CCCOc1ccc(F)cc1-c1cc(C(=O)Nc2cc(OC)c(OC)c(OC)c2)[nH]n1	active: 14.6 µM	
O=C(Nc1c(C(=O)Nc2cccc(C(F)(F)F)c2)oc2ccccc12)c1cc(=O)c2ccccc2o1	inconclusive [inhibitor, full curve]	
CC1C/C(=N/Nc2nc3ccccc3[nH]2)CC(C)(C)C1 (stereo unspecified)	inconclusive [inhibitor, single point]	
CCOC(=O)Cc1csc(NC(=O)c2cc3ccccc3o2)n1	inconclusive [inhibitor, single point]	
Cc1nnc(SCC(=O)NC2CCCCC2)[nH]c1=O	inactive	
O=C(CC1OCC2CCCN2C1=O)Nc1ccc([N+](=O)[O-])cc1 (stereo unspecified)	inconclusive [inhibitor, single point]	
